The densities may have been worked out from excess volumes.
Assay: xn = mol fraction of the nth substance listed
Details: 100 kPa, x1 = 0.2

C[P+](c1ccccc1)(c1ccccc1)c1ccccc1.[Br-] + OCCO
Details | mass density [kg/m3]
298.15 K | 1224
303.15 K | 1220
308.15 K | 1217
318.15 K | 1209
333.15 K | 1199
338.15 K | 1195
343.15 K | 1192
348.15 K | 1188
353.15 K | 1184
358.15 K | 1181
